# According to PubChem BioAssay AID492947 (National Center for Advancing Translational Sciences (NCATS), 2010):
# Among all 330,000 compounds or so, about 80 (0.02%) were called active. This list was built around the results that the source calls inconclusive (neither active nor inactive); the mix of calls is not that of the screen. Calls come from the whole dose curve; as a rule, active = well fitted activation curve with a large enough effect; inconclusive = small, poorly fitted or top-dose-only effect; inactive = flat fitted curve, though single readings scatter. Potencies of inconclusive entries are left out as doubtful fits.
# Target: Beta-2 adrenergic receptor (Homo sapiens) (UniProt P07550)
# Assay: qHTS assay of beta-arrestin-biased ligands of beta2-adrenergic receptor; note: nearly all actives have a fitted effect of over 65% in size
# Details: beta-arrestin recruitment to beta2AR, cell-based reporter; series mostly up to 46.1 µM
# Text: NIH Molecular Libraries Probe Production Network [MLPCN]
# NIH Chemical Genomics Center [NCGC]
# PI: Bryan Roth and Bob Lefkowitz
# The concept of biased agonism is an emerging concept of molecular pharmacology which proposes that seven transmembrane receptors (7TMRs) or G protein-coupled receptors (GPCRs), exist in multiple signaling conformations and complexes and that ligands (either agonists or antagonists) can induce signaling biased responses for distinct signal transduction cascades.
# Furthermore, accumulating evidence over the last decade has drawn attention to a novel function of beta-arrestins as signal transducers that scaffold various signaling molecules upon activation of 7TMRs. […] This beta-arrestin-biased signaling presumably leads to distinct physiological outcomes from those by G protein activation.
# Additionally, the active receptor conformations which […] on this beta-arrestin signaling are likely different from those activating G protein signaling
# The goal of this screening project will be to discover and optimize novel beta-arrestin-biased ligands for beta2-AR signaling. A luminescent cell-based assay for beta2-AR-mediated agonism, known as the Tango assay, has been validated in which ligand binding of a recombinant beta2-AR and subsequent recruitment of a recombinant beta-arrestin lead to the release of the transcriptional activator tTA, which upregulates transcription of a tTA-responsive luciferase gene. […] Compounds were screened as a concentration-titration series that ranged from 46 microM to 0.6 nM.
# NCGC Assay Protocol Summary:
# Tango cells were dispensed into white, solid, tissue-culture-treated 1536-well plates at 1500 cells/well in DMEM, containing 1% fetal bovine serum (FBS). Then, 23 nL of compounds or DMSO were delivered to each well using a pin tool. Plates were incubated at 37 degrees C, 5% CO2 for 18 hr. Then 2.5 uL luminescent substrate mix (in-house prepared: 150 mM Tris-Cl, pH 7.6, 3 mM MgCl2, 1% Triton X-100, 5 mM DTT, 0.5 mM CoA, 0.15 mM ATP, 0.44 mM D-luciferin, final concentrations) was added to each well. Plates were then incubated for 15 minutes at room temperature, and subsequently measured on a ViewLux plate reader for luminescent signal using a clear filter with a 10 second exposure and 2x binning. The %Activity was determined from the corrected luminescence values.
# Concentration-response curves were fitted to the signals arising from the resulting luminescence. The concentration-effect curves were then classified based on curve quality (r2), response magnitude and degree of measured activity, and compounds were subsequently categorized based on their curve class.
# Keywords: biased agonism, beta2-AR, beta-arrestin, GPCR, 7TMR, Tango, luminescence, MLSMR, MLPCN, NIH Roadmap, qHTS, NCGC
# Potency is the fitted concentration of half-maximal effect; tags give direction and shape of the fitted curve.
# UniProt P07550, sequence (P07550 whole entry, looked up): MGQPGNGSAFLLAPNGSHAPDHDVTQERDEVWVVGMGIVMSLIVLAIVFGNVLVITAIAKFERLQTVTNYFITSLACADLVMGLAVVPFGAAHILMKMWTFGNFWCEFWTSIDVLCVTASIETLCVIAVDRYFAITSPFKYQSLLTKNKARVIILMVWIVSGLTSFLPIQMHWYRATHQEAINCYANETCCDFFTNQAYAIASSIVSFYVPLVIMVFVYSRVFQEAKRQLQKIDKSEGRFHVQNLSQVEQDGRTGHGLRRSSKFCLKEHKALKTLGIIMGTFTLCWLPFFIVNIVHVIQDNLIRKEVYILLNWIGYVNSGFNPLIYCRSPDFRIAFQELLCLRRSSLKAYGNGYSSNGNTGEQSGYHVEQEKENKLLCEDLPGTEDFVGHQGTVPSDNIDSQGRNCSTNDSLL
row,SMILES,Potency
1,O=C(Oc1c(-c2ccco2)oc2ccccc2c1=O)c1cccnc1,"inconclusive [rising, single point]"
2,CCOC(=O)C1=C(C)NC(=O)NC1c1ccc(N2CCC(c3ccccc3)=N2)cc1 (stereo not given),"inconclusive [rising, single point]"
3,CCCN1CNC(=S)N(Cc2ccccc2)C1,inactive
4,CCOc1ccc(C(C)=O)cc1COC(=O)CN1C(=O)NC2(CCCC2)C1=O,"inconclusive [rising, single point]"
5,COc1ccc(OC)c(-c2nc(C(=O)NCCCN3CCOCC3)cc3c2[nH]c2ccccc23)c1,inactive
6,COc1ccc(CNC(=O)c2ccc[nH]2)cc1,inactive
7,COc1ccc([C@H](C)NC[C@H](O)c2ccc(O)c(NC=O)c2)cc1,active: 17.8 µM
8,CCCC(=O)NC(c1ccc(OC)cc1)c1ccc2cccnc2c1O (stereo not given),"inconclusive [activator, partial curve]"
9,Cc1cc(C)n(-c2cccc3cccnc23)n1,inactive
10,Cc1onc(-c2ccccc2)c1C(=O)OCC(=O)Nc1cccc(Cl)c1,inactive
11,CCN1C(=O)[C@H]2[C@@H](c3ccc(C)cc3)N3C(=O)N(c4cccc(C)c4)C(=O)[C@@]3(Cc3ccccc3)[C@H]2C1=O,"inconclusive [rising, single point]"
12,COC(=O)C1=C(C)N(Cc2ccc(C)cc2)C(=O)/C1=C\c1ccc(O)c(OC)c1,"inconclusive [rising, single point]"
13,O=C(CSc1nnc(COc2ccccc2F)n1-c1ccccc1)NC1CCS(=O)(=O)C1 (stereo not given),"inconclusive [rising, single point]"
14,COCCOC(=O)C1=C(C)NC(=O)N(C(C)=O)C1c1ccc(Cl)cc1 (stereo not given),inactive
15,COc1cccc(CNc2cccc(C(F)(F)F)c2)c1O,inactive
16,Cc1cccc(-c2ocnc2C(=O)Nc2ccccc2NC(=O)c2ccccn2)c1,"inconclusive [activator, full curve]"
17,Cc1ccccc1-c1nc2c3ccccc3nc(=S)n2[nH]1,active: 10 µM
18,CC1CCCN(C(=O)CSc2nnc3ccccn23)C1 (stereo not given),inactive
19,CCOc1ccccc1N1CCN(C(=O)c2ccc(NS(=O)(=O)c3ccc4[nH]c(=O)[nH]c4c3)cc2)CC1,"inconclusive [rising, single point]"
20,O=C(C[n+]1cn(C(F)F)c2ccccc21)c1ccc(OC(F)F)cc1,"inconclusive [rising, single point]"
21,C/C(=N\NC(=S)NCc1ccccc1)c1ccc(C)o1,"inconclusive [rising, single point]"
22,CC1CCc2nc3ccccc3c(C(=O)OCC(=O)NC3CCS(=O)(=O)C3)c2C1 (stereo not given),inactive
23,N#CC1=C(N)OC2=C(CC/C2=C\c2ccccc2)C1c1ccccc1 (stereo not given),"inconclusive [rising, single point]"
24,CC1CC(C)CN(CCCNC(=O)CN2C(=O)CSc3ccc(S(=O)(=O)N4CCCCC4)cc32)C1 (stereo not given),inactive
25,COc1ccc(NC(=O)CN(c2ccc([N+](=O)[O-])cc2)S(=O)(=O)c2ccccc2)cc1,inactive

row,SMILES,Potency
1,Cc1cc(-c2ccccc2)nc(N/N=C/c2ccccc2F)n1,"inconclusive [rising, single point]"
2,N#C/C(=C\c1cccc(O)c1)C(=O)Nc1ccc2c(c1)OCCO2,"inconclusive [rising, full curve, poor fit]"
3,CN(Cc1ccccc1)C(=O)CN1C(=O)c2ccccc2C1=O,"inconclusive [rising, single point]"
4,O=[N+]([O-])c1cc(Cl)c(O)c2ncccc12,"inconclusive [rising, single point]"
5,O=c1cc(N2CCCC2)[nH]c(=O)n1-c1ccc(Cl)cc1,"inconclusive [rising, single point]"
6,O=C(OCCN1C(=O)c2ccccc2C1=O)c1cc(S(=O)(=O)N2CCOCC2)ccc1Cl,inactive
7,Cc1ccc(S(=O)(=O)NNC(=O)C(O)(c2ccccc2)c2ccccc2)cc1,"inconclusive [rising, single point]"
8,COC(=O)COc1cccc2c(=O)n(CC(=O)Nc3ccc4c(c3)OCCO4)ccc12,"inconclusive [rising, single point]"
9,C/C(=N\NC(=S)NCCc1ccccc1)c1ccc(Cl)cc1Cl,"inconclusive [rising, single point]"
10,CCOc1ccc(CC(=O)Nc2ccc(S(=O)(=O)Nc3cc(C)on3)cc2)cc1OCC,"inconclusive [rising, single point]"
11,CC1CC(C)CN(C(=O)C2CCN(C(=O)Nc3ccccc3)CC2)C1 (stereo not given),"inconclusive [rising, single point]"
12,CCN(CC)c1ccc2nc3ccc(N)cc3[n+](-c3ccccc3)c2c1,inactive
13,Cc1cc(C(=O)CSc2cccc[n+]2[O-])c(C)n1-c1ccc(Br)cc1,"inconclusive [rising, single point]"
14,Cc1cc(NC(=O)CSc2nnc(-c3ccoc3C)o2)no1,"inconclusive [rising, single point]"
15,FC(F)(F)c1cnc(N2CCSCC2)c(Cl)c1,"inconclusive [rising, single point]"
16,O=C(Nc1cnccn1)c1ccc(Cl)cc1,"inconclusive [rising, single point]"
17,COc1ccc(CN2C(=NC(=O)C3CCCO3)SC3CS(=O)(=O)CC32)cc1OC (stereo not given),inactive
18,CCOC(=O)c1cccc(NC(=O)c2cncc(Br)c2)c1,"inconclusive [rising, single point]"
19,CN(C)C(=S)N=Nc1[nH]c2ccccc2c1O,"inconclusive [rising, single point]"
20,CCCCCC1CCC(c2n[nH]c(=S)n2C)CC1 (stereo not given),active: 3.98 µM
21,CCOc1ccc(C(=O)Nc2ccccc2OC(F)F)cc1,"inconclusive [activator, partial curve]"
22,COc1ccc(NC(=O)Cn2nnc(C(=O)NCc3cccs3)c2N)c(OC)c1,inactive
23,Cc1ccc(C(=O)CNc2ccc(Cl)cc2)cc1,"inconclusive [rising, full curve, poor fit]"
24,Cc1ccccc1NC(=O)NNC(=O)c1ccc2ccccc2c1O,"inconclusive [rising, single point]"
25,CCc1nnc(NC(=O)CSc2nnc(-c3ccccc3NC(=O)c3ccccc3)o2)s1,"inconclusive [activator, full curve]"

row,SMILES,Potency
1,COc1ccc(C(=O)NN/C(C)=C/C(=O)c2ccccc2)cc1,inactive
2,CN(c1ccccc1)S(=O)(=O)c1ccc(C(=O)Nc2nccs2)cc1,"inconclusive [rising, single point]"
3,Cc1ccc2c(c1)C(=O)N1[C@H]3c4ccccc4OC[C@@H]3[C@H](c3ccccc3)[C@]1(C)C(=O)N2,"inconclusive [activator, full curve]"
4,O=C(Nc1ccc([N+](=O)[O-])cc1Cl)c1cc(Cl)ccc1O,inactive
5,Oc1c(C(c2ccccn2)N2CCCCC2)cc(Cl)c2cccnc12 (stereo not given),"inconclusive [rising, single point]"
6,O=C(N/N=C/c1ccc(Br)s1)c1cccnc1,"inconclusive [rising, single point]"
7,O=C(CSc1ncn[nH]1)N1N=C2/C(=C/c3ccccc3)CCCC2C1c1ccccc1 (stereo not given),"inconclusive [rising, single point]"
8,Cc1ccc(C2C3=C(CC(C)(C)CC3=O)NC3=C2C(=O)c2ccccc23)cc1 (stereo not given),"inconclusive [rising, single point]"
9,O=C(Cn1cnc2ccccc2c1=O)NC1CCS(=O)(=O)C1 (stereo not given),inactive
10,N#Cc1cc(-c2ccc(Cl)cc2)cn(Cc2c(Cl)cccc2Cl)c1=O,inactive
11,COCCOC(=O)c1sc(=S)n(CCOC)c1N,"inconclusive [rising, single point]"
12,O=C(Nc1ccc(S(=O)(=O)N2CCCCC2)cc1)c1ccc(CN2CCOCC2)cc1,inactive
13,COc1ccccc1-c1nn2c(=O)cc(C)nc2s1,inactive
14,CCCCCCn1nc(C(=O)Nc2nc3c(s2)CCCC3)c2ccccc2c1=O,inactive
15,CCCn1c(-c2ccc(F)cc2)n[nH]c1=S,"inconclusive [rising, single point]"
16,CN(C1=C(N2CCCCC2)C(=O)c2ccccc2C1=O)c1ccccc1,inactive
17,O=C(O)c1ccc(C2Nc3ccccc3C(=O)N2Cc2ccccc2)cc1 (stereo not given),"inconclusive [rising, single point]"
18,C/C(=N\NC(=O)c1nnn(-c2nonc2N)c1-c1ccccc1)c1ccco1,inactive
19,O=C(Oc1c(CN2CCOCC2)cc(Cl)c2cccnc12)c1ccccc1F,active: 5.62 µM
20,O=C(NCC(c1ccco1)N1CCCCC1)c1cccs1 (stereo not given),inactive
21,CCC(=O)NC(c1cc(Cl)c2cccnc2c1O)C1CC1 (stereo not given),"inconclusive [rising, single point]"
22,S=c1[nH]cnc2sc(-c3ccccc3)cc12,"inconclusive [activator, full curve]"
23,Cn1c(-c2ccccc2)c(CCO)c2ccccc21,inactive
24,Cc1ccc(S(=O)(=O)N2CCCC(NC(=O)N3CCN(c4ccccc4)CC3)C2)cc1 (stereo not given),"inconclusive [rising, single point]"
25,COc1ccc(NC(=O)CC2C(=O)N(c3ccc(OC)cc3)C(=S)N2NC(=O)c2cccc(F)c2)cc1 (stereo not given),"inconclusive [rising, single point]"
